{"source": "PubChem BioAssay AID1845197", "about": "(Molecular Pharmacology Branch, DTP, NCI, 2023)", "system": "349418-098-R tumor spheroid viability", "experiment": "Anticancer human tumor 349418-098-R patient-derived lung adenocarcinoma cell line growth inhibition", "details": "compound 30 pM; stronger effect = lower value; spheroids with HUVEC and MSC", "from_the_text": "Multicellular complex tumor spheroid response to DNA repair inhibitors in combination with DNA-damaging drugs\nThis study explores the anticancer activities of DNA-damaging drugs and inhibitors of DNA damage repair, both as single agents and in combinations. Complex tumor spheroids comprised of malignant cells, endothelial cells and mesenchymal stem cells served as an in vitro model for human solid tumors. This model system incorporates physiologically relevant features and patient-derived or established malignant cell lines with clinically relevant genetic alterations from many tumor types. Twenty-six patient-derived or established malignant cell lines were evaluated representing sarcoma, melanoma, small cell lung cancer (SCLC), non-small cell lung cancer (NSCLC), as well as bladder, ovarian and pancreatic cancers. The concentration ranges selected for each drug and investigational agent were based upon clinically achievable concentrations if the clinical Cmax of the agent was known.\nCompounds. […] If the clinical Cmax for an agent had not been determined, the highest concentration tested was 10 microM. […]", "note": "The source holds more than one record for some entries. This list holds those alone. The source may hold further records. The records of an entry are repeated measurements in other runs, samples, wells, individuals or studies.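 Also: spheroids exposed to compound for 7 days before measurement; percent of vehicle control viability with 100% = DMSO-treated spheroids.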"}
{"smiles": "COc1cc2c(cc1O)CCNC21CSC2c3c(OC(C)=O)c(C)c4c(c3C(COC1=O)N1C(O)C3Cc5cc(C)c(OC)c(O)c5C(C21)N3C)OCO4", "note": "(stereo unspecified)", "values": [{"measurement": "viability, T/C", "value": "104, 87.2, 94.1, 110, 108, 103, 91, 89.2, 96.2, 84.9%"}]}
